Experimental data: the supplement of paper PMC11417369
Some of the results follow.

These sequences were tested on PF3D7_0420300 AP2 domain 1 (GST-tagged) (assay: gcPBM binding intensity (ln(normalized median fluorescence intensity)); higher = stronger DNA binding).
Method in brief: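 Probes on an Agilent 4 × 180k array were primer-extended, double-stranded and 36 bp long, taken from intergenic genomic regions, with negative controls added. GST-tagged P. falciparum DNA-binding domains from E. coli, about 25 μg on average, were applied to the array for 1 h in 1× PBS containing 1% milk, 0.2 mg/ml BSA, 0.5% salmon testes DNA and 0.03% Triton X-100. Binding intensity, obtained after Alexa488 anti-GST antibody detection and a 488 nm scan, is the highest Masliner-normalised natural-log median intensity across replicate spots of either probe orientation.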

| Sequence | gcPBM binding intensity (ln) |
| --- | --- |
| ATATATATAGATCGAAGTACAGATAGAATGAAAATA [XGTACX_site2695] | 9.34 |
| ACAAGAGAAAAAAATACACACAAGATAAAAATGTAT [CACACA_site607] | 9.91 |
| TATGCTTTTACAATGTGTACTTATATTTTTCACAGG [XGTACX_site6201] | 9.24 |
| ATATATCATCATGTATGTACACACATACATATATTA [XGTACX_site2814] | 9.54 |
| TAATTTTCAATAATTTGTACATAATTTTTATAAATT [XGTACX_site8133] | 8.85 |
| AACCATAAAAAGTGTACACATATAAAAAATATGGAA [CACACA_site4199] | 9.52 |
| TATATAAATTAACCAGTGCATTATTTGGAAATTATT | 9.31 |
| TAAAAATTACTATATGAACACACATGATTAGATATA [CACACA_site9012] | 9.35 |
| AGGTGATTAATATATACACACATACATATATATATA [CACACA_site8913] | 9.64 |
| TAATAATAATTAAATTGTACATATAATATAATATAA [XGTACX_site8554] | 9.08 |
| AATAAAGTAATAACTACACACATTTATAAAAAAGTA [CACACA_site3753] | 9.63 |
| ATATTATCATATTCGAGTACACGAAGTATTATTGCA [XGTACX_site6765] | 9.19 |
| AACATATTGGATTTAGTGCACATATATATCATAATA | 9.24 |
| AAAAATTACCCTTGTGTACACATATATTATCTGTAT [CACACA_site4513] | 9.59 |
| TCTTATAAACATGTATATATTAAAAAAAAAAAAAAA [TGCATGCA_negctrl_site86] | 8.86 |
| TATAAGCTTTCAATGTGTACATATTATTTTATTATT [XGTACX_site3988] | 9.44 |
| AATATGGTTATATATATATATATATATATATATATT [GTGCAC_negctrl_site566] | 9.17 |
| TTATTATATAAAATAAATAACAAAAAAAATAAAATA [GTGCAC_negctrl_site548] | 9.2 |
| ATTGTTTTATATAGAACACACATAAAAATCTATATG [CACACA_site6681] | 9.26 |

| Sequence | gcPBM binding intensity (ln) |
| --- | --- |
| CAACATTTATATTTTACACACATCATTTAAGCGCTT [CACACA_site992] | 9.58 |
| TTTGAAATAAATAATGCACACTCTACATATATACGT [CACACA_site2244] | 9.39 |
| CCTATCCATACATATACACACATATCTATTTATATA [CACACA_site1669] | 9.71 |
| AAATAAAATACAAGTTGTACTATAAGCTTTTTATAT [XGTACX_site8021] | 9.28 |
| TAATTTAATAATTAGACACACATGTCTAAAATAAAA [CACACA_site2527] | 8.95 |
| AAAAGAAATTTGGGCACATGCGAATTTATAATTTAT [TGCATGCA_site960] | 9.29 |
| TAAAGTATTACAACCACACACACACCGATATATTAT [CACACA_site9382] | 9.99 |
| TATATATATATATATACATGCATATTTTTTATTTTT [TGCATGCA_site464] | 9.05 |
| TTTTTTATATATATTTGTACATATTGCATGTTCCCT [XGTACX_site7143] | 9.35 |
| TGTCTTATATATATTACACACTATATGAAAAAATAT [CACACA_site1487] | 9.29 |
| TATATTTATCTGATAACACACATAAATTAGACATTT [CACACA_site6887] | 9.2 |
| TGTTTTTGTGATCATATGAAAAAATTACCTACAAGG [CACACA_negctrl_site279] | 9.03 |
| ATAGTATCTGGTAGCTGTACGAGTCGTATAGTGCAG [XGTACX_site2542] | 9.29 |
| TTTCCGTATAATTTTGCACACGAATATAAATTTGAT [CACACA_site137] | 9.34 |
| ATAGTTTTACACATTTGTACATAATTTACAACAAAA [XGTACX_site25] | 9.12 |
| TTTAATCAAATTAAAAGTACAGAATTGTTCATGTAG [XGTACX_site1229] | 9.05 |
| ATATATATATATTCCACACACACACTAATAAAAAAA [CACACA_site9214] | 9.94 |
| AAAAAATATTATATATGTACATAATATTTTTTTTTT [XGTACX_site5909] | 9.01 |
| AAAAAAAAAAGACACACACACATATTTATTTATATA [CACACA_site6484] | 9.93 |

| Sequence | gcPBM binding intensity (ln) |
| --- | --- |
| AATATATAAGTGTTGTGTACTAAAGTATTTTCCTAT [XGTACX_site1622] | 9.5 |
| TTTAATTAAATATGTATATATATTCATGTATGTATA [GTGCAC_negctrl_site14] | 9.1 |
| CATATACAGAAACACACACACACATAAATAAATATA [CACACA_site1343] | 10.3 |
| AGTAGATATAAAAGGAGTACACATATATATATAAAT [XGTACX_site4375] | 9.74 |
| ATGGGTATTAAGTGTACACATATAGTGTATTTTGTT [CACACA_site4452] | 9.54 |
| GTGTAAATATAATTAGTTTCACAAAACAAATATTTA [CACACA_negctrl_site717] | 9.13 |
| AGGCACAAAATTAAATGTACATATATATATATATAT [XGTACX_site3323] | 9.08 |
| TATATAAGAATATATACACACATATATGTATATATA [CACACA_site2178] | 9.3 |
| TTTTACAATGAAATATGTACTTAAATGTCCAAATTC [XGTACX_site781] | 8.92 |
| AAAAAGAAAAATTGCACACACTTATAAAAATATACG [CACACA_site6074] | 9.59 |
| GTTAACAAATAATGCACACAAATGGATAAAATTATA [CACACA_site3725] | 9.53 |
| TTAACCATTAATTCTCTACACACTTTTATTTTATTT [CACACA_site8522] | 9.52 |
| AATATAATTTTTTATTGTACAAAAAAATTATTTAAT [XGTACX_site3248] | 8.94 |
| TATTATTAATATGTATGGTTGTAATCTGTGTCTCCT [TGCATGCA_negctrl_site190] | 9.35 |
| AAGAACAAATATGAGGTGCAACACAATATATTATTA [GTGCAC_site9965] | 9.45 |
| TTTTTTTTTATCAAATGTACATATATATAATAATAA [XGTACX_site3941] | 8.92 |
| CATTTTGTAAGATATGCACACATGGATCATATTTTA [CACACA_site423] | 9.25 |
| AATAAGTATACACATACACACACACCCAAAAAAAAA [CACACA_site8034] | 10.1 |
| TATATACTCAAACACACACACACATACACAGACATA [CACACA_site5025] | 10.1 |
